The campaign covered roughly 110,000 compounds. About 230 (0.21%) showed an effect of 50% or more. Some of the results follow.
These molecules were tested against DPAP1 (Plasmodium falciparum, UniProt Q8IIJ9) (assay: primary screen, percent inhibition; read by cleavage of a fluorogenic dipeptide substrate; higher = more effect of the substance).
Design: species or system P. falciparum D10 trophozoite lysates; single well
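Also: 30 min substrate incubation versus DMSO and 10 µM JCP410 controls.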

DPAP1, sequence (Q8IIJ9 whole entry, looked up): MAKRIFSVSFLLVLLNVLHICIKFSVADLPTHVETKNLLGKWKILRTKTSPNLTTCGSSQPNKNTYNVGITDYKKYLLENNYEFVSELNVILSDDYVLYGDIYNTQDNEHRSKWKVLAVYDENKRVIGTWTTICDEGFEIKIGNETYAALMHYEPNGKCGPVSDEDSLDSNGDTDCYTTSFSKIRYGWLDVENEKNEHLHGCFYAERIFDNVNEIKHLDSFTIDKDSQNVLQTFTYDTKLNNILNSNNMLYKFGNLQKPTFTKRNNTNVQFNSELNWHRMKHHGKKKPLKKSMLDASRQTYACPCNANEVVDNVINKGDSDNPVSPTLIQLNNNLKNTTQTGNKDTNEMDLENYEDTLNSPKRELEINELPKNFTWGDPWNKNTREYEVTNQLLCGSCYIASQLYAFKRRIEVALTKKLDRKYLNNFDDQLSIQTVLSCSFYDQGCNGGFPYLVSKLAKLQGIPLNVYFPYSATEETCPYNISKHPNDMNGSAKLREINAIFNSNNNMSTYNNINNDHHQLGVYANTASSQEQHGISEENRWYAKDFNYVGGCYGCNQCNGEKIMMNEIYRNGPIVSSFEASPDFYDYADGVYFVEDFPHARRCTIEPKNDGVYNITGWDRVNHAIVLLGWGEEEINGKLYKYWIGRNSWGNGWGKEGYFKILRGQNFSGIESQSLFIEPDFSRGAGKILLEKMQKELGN

| Structure (SMILES) | % Inhibition @ 10 uM |
| --- | --- |
| CC(=O)C1=C(O)C(=O)N(c2ccc(C)c(Br)c2)C1c1cccc(F)c1 (stereo not shown) | 3.53% |
| CCCCn1c2ccccc2n2cc(CN(C)C34CC5CC(CC(C5)C3)C4)nc12 | -0.828% |
| CC(C)(C)OC(=O)N1CCC(c2c(C(=O)NCc3ccc(F)cc3)cnn2-c2cccc(F)c2)CC1 | -5.38% |
| COc1ccc(C(=O)N/C(=C\c2ccco2)C(=O)NCc2cccnc2)cc1 | -0.178% |
| CCOC(=O)c1c(C)sc2c1OC(N)=C(C#N)C2c1cccc(F)c1 (stereo not shown) | -3.34% |
| COc1ccccc1/N=C1\SC(C(=O)Nc2ccccc2F)CC(=O)N1C (stereo not shown) | -1.37% |
| CCO/C(O)=C1\Cn2ncnc2N=C1C | -1.68% |
| COc1ccc(NC(=O)COc2ccc(C)cc2C)cc1 | -2.32% |
| COc1cccc(NC(=O)CSc2nc3ccccc3[nH]2)c1 | -5.07% |
| CCOC(=O)C1=CN(C)C=C(C(=O)OCC)C1c1ccc(OC)c(O)c1 | -1.48% |
| FC(OC(F)(F)F)c1nc2ccccc2[nH]1 (stereo not shown) | -1.86% |
| CCOC(=O)c1c(C)[nH]c(C)c1S(=O)(=O)N1CCC(C(=O)N2CCn3c2nc2ccccc23)CC1 | -0.695% |
| CCN(CC)CCNC(=O)C1CCCN(c2nnc(C)c3c(C)n(-c4ccccc4)nc23)C1 (stereo not shown) | 1.57% |
| CCC(=O)CC(Sc1cc(=O)oc2ccccc12)c1ccccc1 (stereo not shown) | 3.06% |
| COc1cc(/C=c2\s/c(=C/C(=O)c3ccc(C)cc3)[nH]c2=O)ccc1O | 2.16% |
| OC(CN1CCCc2ccccc21)Cn1c2ccccc2c2ccccc21 (stereo not shown) | 1.23% |
| COc1ccc(CSc2nnc(C)n2N)cc1 | -1.26% |
| O=S1(=O)C(/C=N/Cc2ccc3c(c2)OCO3)=C(O)c2sccc2N1Cc1ccc(F)cc1 | 0.886% |
| CCOC(=O)C1=C(Cc2ccc(Cl)cc2)C(=O)c2ccccc2C1=O | 3.74% |
| C=CCn1c(S)nnc1-c1ccccc1 | -5.11% |
| CC(C)(C)c1cc(C(=O)O)c(C(C)(C)C)s1 | -1.04% |

| Structure (SMILES) | % Inhibition @ 10 uM |
| --- | --- |
| CCn1c2ccccc2c2ccc(C3C(C#N)=C(N)OC4=C3C(=O)CCC4)cc21 (stereo not shown) | -6.51% |
| O=C(NCCSCc1ccccc1)c1ccc(CN2CCOCC2)cc1 | 4.65% |
| N#CCNC(=O)c1nn2c(C(F)(F)F)cc(-c3cccs3)nc2c1Br | -2.67% |
| O=C1c2ccccc2C(=O)N1Cc1cccnc1 | -0.171% |
| CC1(C)CC(=O)C2=C(C1)OC(N)=C(C#N)C2c1ccco1 (stereo not shown) | -0.197% |
| O=C(NCc1ccccc1)c1cc2nc(-c3cccs3)cc(C(F)(F)F)n2n1 | -3.27% |
| Cc1c(CN2CCN(c3ccc([N+](=O)[O-])cc3)CC2)c(=O)n(-c2ccccc2)n1C | -2.02% |
| Cc1ccc(Cc2c(C)nc3c(C(=O)NC4CCCc5ccccc54)cnn3c2C)cc1 (stereo not shown) | 2.79% |
| CC1CC(C)CN(C(=O)Cn2ncc3ccc(Cl)cc32)C1 (stereo not shown) | 0.596% |
| CO/C(O)=C1/C(C)=NC2=C(C(=O)CC(C)(C)C2)C1c1ccc(Cl)cc1 (stereo not shown) | -1.56% |
| Cc1nc2c(c(C)nn2C)c(C)c1CCC(=O)NCc1ccc(Cl)cc1 | -4.24% |
| Cc1ccc(S(=O)Cc2nc(-c3ccc(C(=O)NC4CCCC4)cc3)oc2C)cc1 (stereo not shown) | -2.4% |
| CC1(C(=O)O)CCC(C(=O)Nc2ccc(Nc3ccccc3)cc2)C1(C)C (stereo not shown) | -0.0217% |
| CC1=C(C)CC(C(=O)Nc2ccc(C)c(C)c2)C(C(=O)O)C1 (stereo not shown) | -3.87% |
| O=[N+]([O-])c1ccc(S(=O)(=O)N2CCN(c3cccc(Cl)c3)CC2)cc1 | -3.26% |
| Cc1ccc2c(c1)-c1onc(C(=O)Nc3cccc(C)n3)c1CO2 | 1.14% |
| Cc1cc(C(=O)NCc2ccccc2Cl)c2c(C)nn(-c3ccccc3Cl)c2n1 | 3.55% |
| N#CCNC(=O)C(Cc1ccc(OC(=O)OCc2ccccc2)cc1F)NC(=O)OCc1ccccc1 (stereo not shown) | -1.41% |
| CC12CCCCN1CCCc1c2[nH]c2ccccc12 (stereo not shown) | 0.746% |
| COc1ccc(-n2nc3c(N4CCC(C(=O)NC(C)c5ccccc5)CC4)nnc(C)c3c2C)cc1 (stereo not shown) | -0.518% |
| CC(C)c1ccc(-c2c(N(C)C3CCCCC3)c(=O)c2=O)cc1 | 2.78% |

| Structure (SMILES) | % Inhibition @ 10 uM |
| --- | --- |
| CC(C)CC(C(=O)NCC#N)c1cccc(-c2ccc(S(=O)(=O)NC(C)CN(C)C)cc2)c1 (stereo not shown) | 1.7% |
| Cc1ccccc1Nc1nc(N)c2ccccc2n1 | -0.872% |
| O=C(Nc1nc2ccccc2n1CCN1CCOCC1)C(F)(F)F | 7.15% |
| COc1cccc(OC)c1C(=O)Nc1cccc(C(C)=O)c1 | -1.42% |
| CC(C)(C)C(=O)c1cn(CC(=O)NCCOc2ccc(Cl)cc2)c2ccccc12 | 1.72% |
| Cc1ccc(S(=O)(=O)Nc2ccc(S(=O)(=O)N3CCCC3)cc2)cc1 | 1.64% |
| Cc1ccc(S(=O)(=O)NC(C)C(=O)Nc2ccc(OCc3ccccc3)cc2)cc1 (stereo not shown) | 9.79% |
| C=CCNC(=O)CN(Cc1ccc(Cl)cc1)S(=O)(=O)c1ccc(Br)cc1 | -3.45% |
| O=C(Cn1nc(Cc2ccncc2)c2ccccc2c1=O)NCCN1CCOCC1 | 0.44% |
| COc1ccc(/C(O)=C/C=N/c2cccc(C)c2C)cc1OC | 3.05% |
| COc1ccc(N(CC(=O)Nc2ccc(C(C)C)cc2)S(C)(=O)=O)cc1 | -0.185% |
| Cc1csc(NC(=O)c2c(-c3c(Cl)cccc3Cl)noc2C)n1 | 0.408% |
| COc1cc(C(=O)N2CCN(Cc3ccc4ccccc4c3)CC2)cc(OC)c1OC | -5.85% |
| COc1ccc(C2C3=C(O)CCCC3=Nc3nc(SC)nn32)cc1Br (stereo not shown) | 6.36% |
| O=C(CSc1nnc(CCCO)n1-c1ccccc1)NCC(=O)c1ccccc1 | 4.57% |
| O=C1C2C(c3ccccc3)C=CC(c3ccccc3)C2C(=O)N1Cc1ccccc1 (stereo not shown) | -3.48% |
| O=C(Nc1ccc2nc(S)sc2c1)c1ccccc1 | -0.0648% |
| CCn1c(N2CCN(C(C)=O)CC2)nc2c1c(=O)[nH]c(=O)n2C | 5.53% |
| CCOc1ccc(CNC(=O)C2CCN(S(=O)(=O)N(CC(C)C)CC(C)C)CC2)cc1OC | 0.514% |

Reference: paper PMC6919601, “Identification of Plasmodium dipeptidyl aminopeptidase allosteric inhibitors by high throughput screening” (PLoS ONE, 2019)
